# Laboratory results reported in the supplement of paper PMC8728848.
# The sample as a whole holds a higher share of the strongest signals than the screen did.
# Legend:
# Test in all cases: glycan array binding signal (z-score within array); higher = stronger binding
# Conditions in all cases: glycan notation: IUPAC condensed, linker removed
# [1] = system: Kdn(a2-3)Gal(b1-4)Glc
# Summary of the method: (§1)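 The Consortium for Functional Glycomics database supplied 3228 glycan arrays, of which those lacking an available protein sequence were dropped. The binding signal, a within-array Z-score, was averaged across arrays of the same protein sequence and across linkers. Negative scores can be read as non-binding.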
# [2] = system: Man(a1-2)Man(a1-2)Man(a1-3)Man
# Summary of the method: as §1
# [3] = system: Man(a1-2)Man(a1-2)Man(a1-6)[Man(a1-3)]Man
# Summary of the method: as §1
# [4] = system: Kdn(a2-3)Gal(b1-4)[Fuc(a1-3)]GlcNAc
# Summary of the method: as §1
# [5] = system: Man(a1-2)Man(a1-2)Man(a1-3)[Man(a1-2)Man(a1-6)[Man(a1-3)]Man(a1-6)]Man(b1-4)GlcNAc(b1-4)GlcNAc
# Summary of the method: as §1
# [6] = system: Kdn(a2-3)Gal(b1-3)GalNAc
# Summary of the method: as §1
# [7] = system: Kdn(a2-3)Gal(b1-3)GlcNAc
# Summary of the method: as §1
# [8] = system: Man(a1-2)Man(a1-3)Man
# Summary of the method: as §1
# [9] = system: Kdn(a2-3)Gal(b1-4)GlcNAc
# Summary of the method: as §1
# [10] = system: Man(a1-2)Man(a1-2)Man(a1-3)[Man(a1-2)Man(a1-3)[Man(a1-2)Man(a1-6)]Man(a1-6)]Man(b1-4)GlcNAc(b1-4)GlcNAc
# Summary of the method: as §1
substance,measurement,setting,value
M-Ficolin (Homo sapiens) (chain not printed),glycan array binding signal (z-score),[1],-0.232
same,glycan array binding signal (z-score),[2],-0.287
M-Ficolin A256V (Homo sapiens) (chain not printed),glycan array binding signal (z-score),[3],-0.166
FGF2 (chain not printed),glycan array binding signal (z-score),[4],1.07
Serum Amyloid P component (Homo sapiens) (chain not printed),glycan array binding signal (z-score),[5],-0.603
Gal 3 (Homo sapiens) (chain not printed),glycan array binding signal (z-score),[6],0.034
Gal 8-short (Homo sapiens) (chain not printed),glycan array binding signal (z-score),[7],1.72
Galectin-8 C-terminal CRD (Homo sapiens) (chain not printed),glycan array binding signal (z-score),[3],-0.347
M-Ficolin G221F A256V (Homo sapiens) (chain not printed),glycan array binding signal (z-score),[2],-0.361
same,glycan array binding signal (z-score),[8],-0.276
Collectin K1 (Homo sapiens) (chain not printed),glycan array binding signal (z-score),[2],1.65
same,glycan array binding signal (z-score),[3],1.94
STIM-3 (Mus musculus) (chain not printed),glycan array binding signal (z-score),[7],-1.02
same,glycan array binding signal (z-score),[2],3.14
same,glycan array binding signal (z-score),[3],2.57
MBP (Homo sapiens) (chain not printed),glycan array binding signal (z-score),[3],3.51
M-Ficolin Y271F (Homo sapiens) (chain not printed),glycan array binding signal (z-score),[7],0.162
same,glycan array binding signal (z-score),[9],-0.257
same,glycan array binding signal (z-score),[4],-0.221
same,glycan array binding signal (z-score),[2],-0.608
H-Ficolin (Homo sapiens) (chain not printed),glycan array binding signal (z-score),[10],-0.753
same,glycan array binding signal (z-score),[3],2.25
VWF (Homo sapiens) (chain not printed),glycan array binding signal (z-score),[2],-0.255
same,glycan array binding signal (z-score),[3],-0.144
L-Ficolin (Homo sapiens) (chain not printed),glycan array binding signal (z-score),[3],-0.539
